In patent US20100047166A1, “ANTIBODIES AND RELATED MOLECULES THAT BIND TO 58P1D12 PROTEINS” (priority 2008, published 2010):

What was measured:
[1] = tested on: OVCAR-5/58P1D12 cells; assay: Boyden Transwell/Matrigel tumor cell invasion assay; type: cell-based, Human; conditions: 25 μg/mL MAb, Matrigel, 24 hours
Experimental: FIG. 6. […] Human ovarian cancer cell line OVCAR-5 was transduced with retroviruses (empty vector [Neo] or 58P1D12). Boyden Transwell chambers were coated with a layer of Matrigel® for the cells to invade. […] The cells were allowed to invade for 24 hours toward 10% FBS loaded into the lower chamber. Cells binding to the bottom filter were labeled with Calcein AM dye for 30 minutes and photographed.
Tumor cell invasion was evaluated using the Boyden Transwell chamber coated with a layer of Matrigel® for the cells to invade. Briefly, 58P1D12 MAb or isotype matched control MAb (25 μg/mL) were added to 4×10^4 OVCAR-5/58P1D12 cells in 0.1% FBS into the upper chamber of the apparatus coated with Matrigel®. The cells were allowed to invade for 24 hours toward 10% FBS loaded into the lower chamber. Cells binding to the bottom filter were labeled with Calcein AM dye for 30 minutes and photographed.
In this assay, the Boyden Transwell chamber is coated with a layer of Matrigel® for the cells to invade. […] The cells were allowed to invade for 24 hours toward 10% FBS loaded into the lower chamber. Cells binding to the bottom filter were labeled with Calcein AM dye for 30 minutes and photographed.

[2] = target: T1, 58P1D12 expressed on 3T3 cells (Homo sapiens, UniProt Q9H9P2); assay: Affinity determination by FACS; type: binding
T1 construct: expressed in transfected cells; host or cells: 3T3 cells (3T3-58P1D12); retroviral pSRα transduction is described only in general terms
T1 sequence (Q9H9P2 22-273): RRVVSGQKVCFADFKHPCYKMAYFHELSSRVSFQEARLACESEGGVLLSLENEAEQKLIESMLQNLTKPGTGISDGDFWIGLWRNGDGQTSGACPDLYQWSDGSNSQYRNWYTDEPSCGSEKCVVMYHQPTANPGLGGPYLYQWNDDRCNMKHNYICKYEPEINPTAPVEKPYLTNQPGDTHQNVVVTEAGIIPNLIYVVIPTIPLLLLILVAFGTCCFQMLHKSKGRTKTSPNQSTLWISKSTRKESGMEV
Experimental: At the end of the incubation, cells were washed and incubated with anti-hIgG-PE detection antibody for 45 min at 4° C. After washing the unbound detection antibodies, the cells were analyzed by FACS. Mean Florescence Intensity (MFI) values were obtained as listed in (Table VI(A)).

[3] = tested on: MDCK/58P1D12 cells; assay: Boyden Transwell chamber cell migration assay; type: cell-based, Canine; conditions: 25 μg/mL MAb, 16 hours
Experimental: FIG. 5. […] Canine MDCK cells were transduced with retroviruses (empty vector [Neo] or 58P1D12). […] Cells captured on the bottom filter were labeled with Calcein AM dye for 30 minutes and photographed. Empty vector expressing cells were included for negative control. The level of cell fluorescence (migration) was quantitated with MetaMorph imaging software.
FIG. 7. Comparison of 58P1D12 MAbs for Functional Activity in vitro. […] Tumor cell migration was evaluated using MDCK/58P1D12 cells in the Boyden Transwell chamber migration assay. Migration was evaluated by plating 4×10^4 MDCK/58P1D12 cells into the upper chamber of a Boyden Transwell apparatus in 0.1% FBS plus 25 μg/mL control MAb or 58P1D12 MAb, and allowing the cells to migrate for 16 hours toward 10% FBS in the lower chamber. Cells captured on the bottom filter were labeled with Calcein AM dye for 30 minutes and photographed. The level of cell fluorescence (migration) was quantitated with MetaMorph imaging software.
Cells captured on the bottom filter were labeled with Calcein AM dye for 30 minutes and photographed. The level of cell fluorescence (migration) was quantitated with MetaMorph imaging software.
Tumor cell migration was evaluated using MDCK/58P1D12 cells in the Boyden Transwell chamber migration assay. […] The level of cell fluorescence (migration) was quantitated with MetaMorph imaging software.

[4] = tested on: Ovcar5-58P1D12 tumors; assay: Ovcar5-58P1D12 ovarian tumors grown in mouse tibiae; type: in vivo, SCID mice; conditions: Day 42; 500 μg i.p. twice weekly, 12 doses; vs control antibody, p=0.0002
Description: FIG. 14. […] Ovcar5-58P1D12 expressing tumor cells (2.0×10^6 cells) were implanted into the right tibiae of female SCID mice.
Tumor growth is monitored using calipers.
In this experiment, Ovcar5-58P1D12 expressing tumor cells (2.0×10^6 cells) were implanted into the right tibiae of female SCID mice.

B1: Ha8-4c4.1: fully human γ1κ monoclonal antibody to 58P1D12 (Ha8-4c4.1 VH & Ha8-4c4.1 VL clone 1-B3); hybridoma ATCC PTA-9404 (antibody, V domains shown)
VH: QVQLQESGPGLVKPSETLSLTCTVSGGSVSSGGYYWSWIRQPPGKGLEWIGYIYYSGGTNYNPSLKSRVTISVDTSKNQFSLKLTSVTAADTAVYYCARESGYCTNVACFPDAFDIWGQGTMVTVSS
VL: DIVMTQSPDSLAVSLGERATINCKSSQGVLYSSNNKNYLAWYQQKPGQPPKLLIYWASTRESGVPDRFSGSGSGTDFTLTISSLQAEDVAVYFCQQYYVSPLTFGGGTKVEIKR
effect on tumor cell invasion (comparison of 58P1D12 MAbs) [1]: inhibited tumor cell invasion
inhibition of cell invasion ([1]; vs isotype matched control MAb, p<0.0001): 75%
58P1D12-3T3 (MFI) ([2]; Ha8-4c4.1 MAb concentration 0.0049 nM): 0
58P1D12-3T3 (MFI) ([2]; Ha8-4c4.1 MAb concentration 0.0195 nM): 8
58P1D12-3T3 (MFI) ([2]; Ha8-4c4.1 MAb concentration 0.0391 nM): 18
58P1D12-3T3 (MFI) ([2]; Ha8-4c4.1 MAb concentration 0.0781 nM): 30
58P1D12-3T3 (MFI) ([2]; Ha8-4c4.1 MAb concentration 0.156 nM): 58
58P1D12-3T3 (MFI) ([2]; Ha8-4c4.1 MAb concentration 0.313 nM): 110
58P1D12-3T3 (MFI) ([2]; Ha8-4c4.1 MAb concentration 0.625 nM): 201
58P1D12-3T3 (MFI) ([2]; Ha8-4c4.1 MAb concentration 1.3 nM): 340
58P1D12-3T3 (MFI) ([2]; Ha8-4c4.1 MAb concentration 2.5 nM): 558
58P1D12-3T3 (MFI) ([2]; Ha8-4c4.1 MAb concentration 5.0 nM): 828
58P1D12-3T3 (MFI) ([2]; Ha8-4c4.1 MAb concentration 10 nM): 1052
58P1D12-3T3 (MFI) ([2]; Ha8-4c4.1 MAb concentration 20 nM): 1185
58P1D12-3T3 (MFI) ([2]; Ha8-4c4.1 MAb concentration 40 nM): 1167
58P1D12-3T3 (MFI) ([2]; Ha8-4c4.1 MAb concentration 80 nM): 1198
inhibition of cell migration ([3]; 0.1% FBS toward 10% FBS, vs control MAb, p<0.0001): approximately 45%
effect on tumor cell migration (comparison of 58P1D12 MAbs) [3]: inhibited cell migration
inhibition of growth (tumor weight) [4]: 56%
